Reference: PubChem BioAssay AID720709 (National Center for Advancing Translational Sciences (NCATS), 2013)
Screen size: about 360,000 compounds; about 520 (0.14%) were called active. Inconclusive means that the source gave no clear call. Such entries were picked first, then a sample of the others. The call rests on the fitted dose curve; in most records, active means well fitted inhibition curve with a large enough effect; inconclusive means small, poorly fitted or top-dose-only effect; inactive means no such curve, though single readings can be large or run the other way. No potency is given beside an inconclusive call; the fits are too rough.

Biological target: Rap guanine nucleotide exchange factor 3 (Homo sapiens) (UniProt O95398)
Sequence of UniProt O95398 (O95398 whole entry, looked up): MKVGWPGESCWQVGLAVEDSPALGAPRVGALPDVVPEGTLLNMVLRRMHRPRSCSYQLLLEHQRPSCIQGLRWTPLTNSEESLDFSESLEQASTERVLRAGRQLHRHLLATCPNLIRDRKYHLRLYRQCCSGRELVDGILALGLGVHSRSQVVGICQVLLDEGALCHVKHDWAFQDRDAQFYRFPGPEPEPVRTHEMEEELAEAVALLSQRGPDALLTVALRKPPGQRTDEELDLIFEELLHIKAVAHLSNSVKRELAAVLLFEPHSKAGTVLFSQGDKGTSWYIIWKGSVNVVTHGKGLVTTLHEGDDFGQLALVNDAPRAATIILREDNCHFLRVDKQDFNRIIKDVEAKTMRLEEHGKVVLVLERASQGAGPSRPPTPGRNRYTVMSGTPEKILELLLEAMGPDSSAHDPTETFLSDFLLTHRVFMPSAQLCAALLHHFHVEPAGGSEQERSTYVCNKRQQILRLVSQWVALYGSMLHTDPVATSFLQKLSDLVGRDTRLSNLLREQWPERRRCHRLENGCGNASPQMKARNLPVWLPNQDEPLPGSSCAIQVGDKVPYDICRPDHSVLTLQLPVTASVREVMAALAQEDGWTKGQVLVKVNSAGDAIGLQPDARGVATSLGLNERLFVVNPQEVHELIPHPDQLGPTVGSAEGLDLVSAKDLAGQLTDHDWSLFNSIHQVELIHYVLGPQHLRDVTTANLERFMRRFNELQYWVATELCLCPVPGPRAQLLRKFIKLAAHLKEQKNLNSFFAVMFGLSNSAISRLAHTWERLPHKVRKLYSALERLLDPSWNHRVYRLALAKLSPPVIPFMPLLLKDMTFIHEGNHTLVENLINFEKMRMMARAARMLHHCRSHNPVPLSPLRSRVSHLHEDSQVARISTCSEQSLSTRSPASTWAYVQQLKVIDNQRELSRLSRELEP
Assay: qHTS for Antagonist of cAMP-regulated guanine nucleotide exchange factor 3 (EPAC1): primary screen; further: nearly all actives have a fitted effect of over 50% in size;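 on activity change, negative = inhibition: plate controls were vehicle for no effect and positive control for full effect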
Details: EPAC1 GEF assay, Rap1b-BODIPY-GDP exchange fluorescence; activity change, negative = inhibition: at 115 µM (top of the series)
Potency means the concentration at half of the fitted maximal effect; tags describe the fitted curve by direction and shape.

Compound | Potency | activity change, negative = inhibition
COc1cccc(-n2nnc3c(=O)n(C/C=C/c4ccccc4)cnc32)c1 | inconclusive [inhibitor, single point] | 
C/C(=N\Nc1nc2ccccc2[nH]1)c1ccc(Cl)s1 | inconclusive [inhibitor, single point] | 
O=C(c1cc(-c2cccc(Cl)c2)on1)N1CCc2ccccc2C1 | inconclusive [inhibitor, single point] | 
Cc1cc(NC(=S)Nc2cccnc2)ccc1Br | inconclusive [inhibitor, full curve, poor fit] | 
CCN(c1ccc(NC(=O)CN2C(=O)NC3(CCOc4ccccc43)C2=O)cc1)C(C)C (centres undefined) | inconclusive [inhibitor, single point] | 
Cc1ccc(C2(O)CN(c3ccccc3)C3=[N+]2CCS3)cc1 (centres undefined) | inconclusive [inhibitor, full curve, poor fit] | 
O=c1c2c(-c3ccco3)csc2nc(SCc2cn3cccnc3n2)n1-c1ccccc1 | inconclusive [inhibitor, partial curve] | 
O=C(Nc1cccc(S(=O)(=O)C(F)F)c1)c1ccc(S(=O)(=O)N2CCCCC2)cc1 | inconclusive [inhibitor, partial curve, poor fit] | 
CCCCCCCCSC1=CC(=O)C(OC)=C(OC)C1=O | inactive | 
COc1ccc(OC)c(NC(=O)NNS(=O)(=O)c2ccc(C)cc2C)c1 | inactive | 
CCOc1cc(/C=C2/C(=N)N3N=C(CC)SC3=NC2=O)ccc1OC(=O)c1ccco1 | inconclusive [inhibitor, full curve, poor fit] | 
Cc1ccc(C(C)C)c(OCc2ccc(C(=O)N/N=C/c3ccc(O)c(O)c3)cc2)c1 | inconclusive [inhibitor, partial curve] | 
COc1ccc(-c2ccc(C(=O)NCCc3ccccc3)c3occc23)c(C)c1 | inactive | 
Cc1ccccc1S(=O)(=O)Cc1ccc(C(=O)NCCc2ccccc2)o1 | inconclusive [inhibitor, single point] | 
CSCCC(NC(=O)c1ccco1)C(=O)NCC1CCCO1 (centres undefined) | inconclusive [inhibitor, full curve, poor fit] | 
CCOc1ccccc1Nc1nc(-c2sc(NC(=O)c3ccco3)nc2C)cs1 | inactive | 
Cc1ccc(NS(=O)(=O)c2cccc(C(=O)NCC(c3ccco3)N3CCCCC3)c2)cc1 (centres undefined) | inconclusive [inhibitor, partial curve] | 
CCc1sc(C(=O)NCCc2ccc(S(N)(=O)=O)cc2)cc1C | inconclusive [inhibitor, partial curve] | 
O=C(CSc1nnc(NC(=O)c2c(F)cccc2F)s1)NC1CC1 | inconclusive [inhibitor, single point] | 
CC(C)Nc1ccc(Nc2ccnc3cc4ccccc4cc23)cc1 | inconclusive [inhibitor, full curve, poor fit] | 
O=C(Nc1nc(-c2ccc3c(c2)OCO3)cs1)C1CC1 | inactive | 
C=CC(=O)N1C/C(=C/c2ccc(Cl)cc2)C(=O)/C(=C\c2ccc(Cl)cc2)C1 | inconclusive [inhibitor, partial curve] | 

Compound | Potency | activity change, negative = inhibition
CCCn1cc(CN2CCC(n3nccc3NC(=O)CCOc3ccccc3)CC2)c(C)n1 | inactive | 
Cc1ccc2c(c1)C1(OCCCO1)C(=O)N2CC#N | inconclusive [inhibitor, partial curve, poor fit] | 
CNC(=S)NNC(=O)c1ccccc1Br | inconclusive [inhibitor, full curve, poor fit] | 
Cc1ccc(N(CC(=O)Nc2ccc3c(c2)OCCO3)S(C)(=O)=O)cc1 | inconclusive [inhibitor, partial curve] | 
COc1ccc2nc(SCC(=O)NCC3CCCO3)c(C#N)cc2c1 (centres undefined) | inconclusive [inhibitor, partial curve] | 
CC(C)(C)CNC(=O)c1cccc2c1C(=O)c1ccc(-c3cc4ccccc4o3)cc1S2(=O)=O | inconclusive [inhibitor, full curve, poor fit] | 
CCOC(=O)Nc1nnc(Cc2ccc(Cl)c(Cl)c2)s1 | inconclusive [inhibitor, single point] | 
Cc1cccc(-n2nnnc2SCC(=O)NCC2CCCO2)c1 (centres undefined) | inactive | 
CCCC(=O)OCCNc1cc(Sc2nc3ccccc3[nH]2)c2nonc2c1[N+](=O)[O-] | inactive | 
Cc1nc2cc(NC(=O)N3CCN(c4ccccn4)CC3)ccc2o1 | inactive | 
Cc1cc(C(C)(C)C)cc(C)c1Cn1c2[n+](c3ccc(C(F)(F)F)cc31)CCCCC2 | inactive | 
CC1CC(=O)N(c2ccc(C(C)C)cc2)C(=O)C1 | inconclusive [inhibitor, full curve] | 
CC(C)CCNC(=O)c1ccc2c(c1)N(Cc1ccccc1)C(=O)CS2=O (centres undefined) | inconclusive [inhibitor, partial curve] | 
Cn1c(SCC(=O)Nc2ccc3nc(SCC(=O)N4CCCC4)sc3c2)nnc1-c1ccccc1 | inactive | 
COc1cccc(C2=NOC(C(=O)N3CCN(c4ccccc4)CC3)C2)c1OC (centres undefined) | inconclusive [inhibitor, single point] | 
CC(=O)OCC1=C(C(=O)O)N2C(=O)[C@@H](NC(=O)Cc3ccccc3)[C@H]2SC1 | inactive | 
O=C(CSc1nc2ccccc2n1CC(=O)N1CCCCC1)N1CCCCC1 | inactive | 
C=CCc1cccc(/C=N/NC(=O)c2ccc3nc[nH]c3c2)c1O | inconclusive [inhibitor, single point] | 
CCN1C(=O)[C@H]2[C@@H](c3ccc(C)cc3)N3C(=O)N(c4ccc(C(F)(F)F)cc4)C(=O)[C@@]3(CC(C)C)[C@H]2C1=O | inconclusive [inhibitor, partial curve] | 
CCOC(=O)C1(Cc2ccccc2C(F)(F)F)CCN(C2CCN(C(C)C)CC2)CC1 | inconclusive [inhibitor, single point] | 
CCCCCCCCCC(=O)N/N=C/c1ccc(C)s1 | inconclusive [inhibitor, partial curve] | 
O=C(CN1C(=O)COc2ccccc21)NCCN1CCCC1 | inconclusive [inhibitor, single point] | 

Compound | Potency | activity change, negative = inhibition
Cc1ccc(-n2cc(CN3CCC(O)(c4ccccn4)CC3)c(-c3ccc(F)cc3)n2)cc1 | inconclusive [inhibitor, partial curve] | 
COC(=O)CNC(=O)C1Nc2ccccc2C2C=CCC12 (centres undefined) | inconclusive [inhibitor, single point] | 
Cc1ccc(NC(=O)CSc2nc(NS(=O)(=O)c3ccccc3)cc(=O)[nH]2)cc1 | inconclusive [inhibitor, partial curve] | 
O=C(NC1=C(Nc2ccc(F)cc2)C(=O)c2ccccc2C1=O)c1ccc(Cl)cc1 | inactive | 
Cc1ccc(CN2CC(N3CCN(C)CC3)CS2(=O)=O)cc1 (centres undefined) | inactive | 
CCOC(=O)c1cccc(NC(=O)c2cncc(Br)c2)c1 | inconclusive [inhibitor, full curve, poor fit] | 
CCCCCn1c(N2CCN(Cc3ccccc3)CC2)nc2c1c(=O)[nH]c(=O)n2C | inactive | 
O=C(CCCCn1c(=S)[nH]c2ccsc2c1=O)NCc1ccc2c(c1)OCO2 | inconclusive [inhibitor, partial curve] | 
O=c1cc(-c2ccc(O)c(O)c2)oc2c(C3O[C@H](CO)[C@@H](O)[C@H](O)[C@H]3O)c(O)cc(O)c12 (some centres undefined) |  | inconclusive: -13.9% [inhibitor]
COc1cc(OC)c(CNC2CCCCCC2)cc1Br | inconclusive [inhibitor, single point] | 
C/C(=N\Nc1ccc([N+](=O)[O-])cc1[N+](=O)[O-])C(C)(C)C(C(=O)O)C(=O)O | inconclusive [inhibitor, single point] | 
CC(CC(=O)Nc1ccc2c(c1)c(=O)n(C)n2Cc1cccc(C(F)(F)F)c1)C(F)(F)F (centres undefined) | inactive | 
CC(OC(=O)CC1CCCCC1)C(=O)Nc1ccc(S(N)(=O)=O)cc1 (centres undefined) | inconclusive [inhibitor, single point] | 
COc1ccc(C)cc1NC(=O)NCc1ccc(F)cc1 | inconclusive [inhibitor, full curve, poor fit] | 
O=C(O)c1cccc(N/N=C/c2cc(Br)cc(Br)c2O)c1 | inconclusive [inhibitor, single point] | 
CC(C)N1CC2(CC(c3ccccc3C(F)(F)F)=NO2)CN1C(=O)c1ccco1 (centres undefined) | inconclusive [inhibitor, full curve, poor fit] | 
Cc1c(CNC(=O)C2CC2)c(-n2cccc2)n(Cc2ccccc2)c1C | inconclusive [inhibitor, single point] | 
O=C(COC(=O)[C@@H]1CC(O)CN1S(=O)(=O)c1ccc(Cl)c(Cl)c1)NC(=O)NCc1ccccc1 (some centres undefined) | inconclusive [inhibitor, single point] | 
C[C@H]1CN([C@@H](C)CO)C(=O)c2cccc(NC(=O)Nc3ccc(C(F)(F)F)cc3)c2O[C@@H]1CN(C)S(=O)(=O)c1ccccc1 | inconclusive [inhibitor, partial curve, poor fit] | 
COCCCN=Cc1c(-c2ccccc2)[nH]n(-c2nc3ccccc3s2)c1=O | inconclusive [inhibitor, partial curve] | 
